# Source: the supplement of paper PMC3334620
# The full ranking holds about 33,000 sequences; the median of “E-score (-0.5 to 0.5)” is about -0.043, and the highest 2% start at about 0.37. The list shows a part of the results.
# Target: T1, Upc2 (UniProt Q12151)
# T1 sequence: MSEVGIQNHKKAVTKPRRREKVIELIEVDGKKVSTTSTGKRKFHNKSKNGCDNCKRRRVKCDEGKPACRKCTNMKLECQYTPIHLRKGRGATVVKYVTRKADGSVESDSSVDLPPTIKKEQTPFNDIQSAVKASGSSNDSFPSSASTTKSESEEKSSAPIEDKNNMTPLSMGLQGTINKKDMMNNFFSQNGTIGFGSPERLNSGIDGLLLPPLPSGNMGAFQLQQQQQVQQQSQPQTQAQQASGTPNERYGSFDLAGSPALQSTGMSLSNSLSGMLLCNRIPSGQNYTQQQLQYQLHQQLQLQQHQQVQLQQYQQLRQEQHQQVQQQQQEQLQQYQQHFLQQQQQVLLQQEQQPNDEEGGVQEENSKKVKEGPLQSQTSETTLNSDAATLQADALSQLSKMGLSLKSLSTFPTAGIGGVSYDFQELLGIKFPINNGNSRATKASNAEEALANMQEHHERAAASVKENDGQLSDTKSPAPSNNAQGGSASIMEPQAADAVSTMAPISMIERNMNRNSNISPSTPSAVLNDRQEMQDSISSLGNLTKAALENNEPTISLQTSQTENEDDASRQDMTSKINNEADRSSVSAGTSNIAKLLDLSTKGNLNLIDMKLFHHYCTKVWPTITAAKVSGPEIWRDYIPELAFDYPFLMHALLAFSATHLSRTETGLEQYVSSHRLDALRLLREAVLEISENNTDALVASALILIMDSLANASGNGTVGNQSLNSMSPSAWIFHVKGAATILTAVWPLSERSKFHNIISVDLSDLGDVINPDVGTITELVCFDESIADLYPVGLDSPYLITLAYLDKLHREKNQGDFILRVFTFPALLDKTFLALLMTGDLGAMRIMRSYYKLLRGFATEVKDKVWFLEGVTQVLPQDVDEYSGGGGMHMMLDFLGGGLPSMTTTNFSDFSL
# Experiment: PBM E-score (8-mer binding enrichment) (E-score (-0.5 to 0.5)); higher = stronger / more preferred TF binding; most listed sequences are background and not binding sites
# Settings: protein concentration: 200 nM; construct: GST-full length
# Outline: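 GST-tagged yeast TFs (full-length or DNA-binding domain) were made by PURExpress in vitro transcription/translation and applied at about 100-200 nM to universal all-10-mer Agilent arrays. The arrays were made double-stranded by primer extension, on fresh or once-stripped slides. Bound protein was detected with fluorescent anti-GST, and scans were normalised with masliner. Each ungapped eight-base word, pooled with its reverse complement, received an E-score (modified Wilcoxon-Mann-Whitney statistic) from the Universal PBM Analysis Suite.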
row,Sequence,PBM E-score
1,CATGTAGA,-0.165
2,GCTGGATA,-0.131
3,ATCTGCAC,-0.124
4,GACTTTCC,-0.229
5,AGACGATG,0.0313
6,CACCACAC,-0.239
7,CGTGACAG,0.084
8,ATCCGACA,0.158
9,AGCGCGGG,-0.0277
10,CCGAAGCA,0.0563
11,CAACATTG,0.0126
12,AGGTAAGA,0.101
13,CTAGCGAG,-0.011
14,ATCAACAT,-0.0449
15,CCAGTCCC,-0.235
16,TGCCTCCA,-0.221
17,CAGCGTGC,-0.212
18,ATTTTCAC,0.0208
19,AACCAATG,-0.166
20,AATTATAG,0.0092
21,GCGTATGA,0.305
22,AAGCCAAC,0.098
23,ATCAGTAC,0.104
24,CAGACCCG,-0.0414
25,ACGGGCAA,0.16

row,Sequence,PBM E-score
1,CTACTATC,0.00083
2,CAATTCAG,-0.00105
3,GTCTAAAC,0.257
4,TTCGTCAA,0.0787
5,AAGAACGT,0.108
6,CCCCATGC,-0.29
7,TTCATCAA,-0.181
8,TATTCTAA,0.0995
9,TAGCATGA,-0.243
10,CGATCGAC,0.0174
11,ATTCAATA,0.0442
12,ACAGGAAT,-0.131
13,GCGGCTAA,-0.0166
14,GACCAGGA,-0.0205
15,TGGGTGAA,0.0898
16,CACCTGAG,-0.25
17,CGAATATC,0.0843
18,AGGATAAG,-0.175
19,TCGATAGA,-0.00116
20,TCGTTAAA,0.466
21,CACATCTC,-0.0889
22,TCATCAAA,-0.111
23,ACCCATCC,-0.082
24,GAGCAATA,-0.00989
25,AGCACTTC,-0.082

row,Sequence,PBM E-score
1,AAGTGGGG,-0.11
2,CATTAGTA,-0.0153
3,GAATGACC,-0.12
4,ACGCCTAC,-0.0515
5,AATAGTTA,-0.00543
6,CCTTCCGC,-0.243
7,CCTCCAAG,-0.292
8,ACCGTTAT,-0.0125
9,ACTCATCA,-0.128
10,AATCGATA,0.147
11,AGGCACCA,0.0711
12,AGAGCCCG,-0.0194
13,ATTAACAA,0.177
14,GAACACCA,-0.16
15,TAAACAGA,-0.078
16,ATCACCTA,-0.0444
17,CTCAAGCA,-0.295
18,AATCATGC,-0.304
19,CATTCTGC,-0.117
20,GAGGATCC,-0.0192
21,GTCTCGTA,0.456
22,ACACATGC,-0.12
23,CACGACGA,0.126
24,ATCCGTTC,0.221
25,AACGGTGA,0.241

row,Sequence,PBM E-score
1,AATACAAT,0.0106
2,CAAAACGA,0.31
3,ATGAGATC,0.081
4,CAAATTAA,-0.103
5,AAGTGGAG,-0.194
6,ACTCATAA,-0.0749
7,CTCTAAAG,-0.225
8,AGCTCATG,-0.159
9,ACGCAACC,0.132
10,AAGGGCAC,-0.242
11,GCATTGCA,-0.0224
12,CGGAGTCC,-0.137
13,CGCGGCTA,0.13
14,ACCACCTA,-0.194
15,CACTGAAC,0.114
16,ACGCGGTC,0.0726
17,ATCCCTAG,-0.0909
18,CTGACGCC,-0.0727
19,CTGCCCCC,-0.228
20,AAAGGTAG,-0.16
21,CCCACGAG,-0.341
22,ACGTGGAG,0.104
23,AGACTGTC,-0.0995
24,CCGGCTAC,-0.0283
25,ATGCCCTA,-0.137

row,Sequence,PBM E-score
1,CCTCTTCG,0.0358
2,CTTGCCTC,0.0793
3,GCGATGGA,-0.0225
4,AGTATATA,0.282
5,CGCCCCAC,-0.0867
6,AGCTTGCC,-0.0292
7,AGGACTCC,-0.182
8,AACGAGCC,0.449
9,CCACTAGA,-0.189
10,CATAAATA,-0.0593
11,CGGTGTAC,0.277
12,CTGAAAAC,0.0321
13,ATACTGAC,0.14
14,TCGAACGA,0.368
15,GAGGTATC,-0.127
16,CCAAATAG,-0.0106
17,ACTCCTTC,-0.235
18,CGGCTTTC,-0.0637
19,AGCTAGAG,-0.07
20,ACCCCTCT,-0.179
21,GTTAGGCA,-0.13
22,CGCAATCC,0.0609
23,AATTACTC,-0.064
24,ACTGTCAG,-0.0612
25,ACCGTGTG,-0.118

row,Sequence,PBM E-score
1,GAGGTCTA,0.129
2,AACATCGT,0.198
3,CGTTGGCA,-0.019
4,CGGGTCGA,0.0218
5,ACATGTGC,0.0271
6,ACGGATTG,0.146
7,GATGCTGC,-0.157
8,AAAGGGTG,-0.342
9,CCTACCGA,-0.0373
10,GACCTCTC,0.18
11,CTCGGAAG,-0.0694
12,AACTACCG,-0.0994
13,CTAGAGAC,-0.247
14,GGGGTTGA,-0.294
15,GATAAACC,0.0863
16,ACGGTACA,0.178
17,AATGGTCG,0.153
18,AAGGGGGT,-0.384
19,CAGTCCTC,-0.348
20,ATCCCGTC,-0.104
21,CAAGCCGC,-0.158
22,GCTTTGTA,0.0521
23,ATTGCATG,-0.00567
24,CCCTGCCC,-0.138
25,AGTAAATG,-0.0961

row,Sequence,PBM E-score
1,AACGATCC,0.345
2,ACTTTGAG,-0.174
3,GACGGCCA,-0.252
4,ATAAAGAG,-0.00074
5,AAACGTGT,0.216
6,CACTGATG,-0.204
7,GCGCCGTA,0.358
8,TCATGAGA,-0.0162
9,CAAAGGAG,-0.206
10,CATGACGA,-0.00458
11,AGTAGCAG,0.0251
12,ATCGCGAG,0.175
13,GAAGTTAC,0.0138
14,GATTGTAC,0.103
15,CCAATACA,-0.214
16,ACTTATAA,0.0838
17,TCTGAGAA,-0.0854
18,ATAAGTCA,-0.064
19,CAAGCCCG,-0.0532
20,ACCTGTGA,-0.0274
21,AGGTGTGG,-0.0984
22,GTCTAGGA,-0.181
